Measurements as given in patent US12116397B2, “IL-IR-I binding polypeptide” (Swedish Orphan Biovitrum AB (publ), priority 2017, dated 2024).

What was measured:
[1] = Circular dichroism (CD) spectroscopy analysis, melting temperature and refolding; format: physicochemical; conditions: His6-tagged Z variants, CD variable temperature measurement, Table 21
hIL-1R-I [2] = biological target: T1, hIL-1R-I (Homo sapiens, UniProt P14778); assay: Biacore kinetic screening of Z-ABD periplasmic extracts captured on anti-ABD antibody; format: binding; conditions: differs only in position X5 of BM (isoleucine vs alanine) (Example 8)
T1 construct: purchased R&D Systems 269-1R/CF
T1 sequence (P14778 18-569): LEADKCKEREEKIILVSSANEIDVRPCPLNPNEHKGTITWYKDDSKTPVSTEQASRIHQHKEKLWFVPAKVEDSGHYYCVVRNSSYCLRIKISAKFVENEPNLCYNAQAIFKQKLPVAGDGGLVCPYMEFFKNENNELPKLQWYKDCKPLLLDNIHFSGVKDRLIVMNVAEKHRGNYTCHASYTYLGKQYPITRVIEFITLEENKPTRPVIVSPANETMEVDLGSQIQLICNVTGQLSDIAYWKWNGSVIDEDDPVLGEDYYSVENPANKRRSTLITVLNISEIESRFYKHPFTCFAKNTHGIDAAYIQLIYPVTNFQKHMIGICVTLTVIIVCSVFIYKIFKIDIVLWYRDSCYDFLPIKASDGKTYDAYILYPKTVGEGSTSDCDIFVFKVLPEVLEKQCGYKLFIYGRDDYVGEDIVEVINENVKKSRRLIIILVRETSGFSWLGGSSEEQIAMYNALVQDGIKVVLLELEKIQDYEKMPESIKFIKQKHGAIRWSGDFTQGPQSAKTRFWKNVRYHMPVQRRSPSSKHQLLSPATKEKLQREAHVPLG
Protocol: The binding of Z variants to human IL-1R-I was analyzed in a kinetic screening using a Biacore T200 instrument. A polyclonal goat anti-ABD antibody (goat anti-ABD) was immobilized on CM5 chip surfaces basically as described for other proteins in Example 2. For the kinetic screening, analytes were injected in two steps. First, a Z-ABD (ABD001, SEQ ID NO:1660) periplasmic extract was injected over the surface at 5 μl/min for 1 min. As a second step, 100 nM hIL-1R-I was injected at 30 μl/min for 2 min, followed by 2 min of dissociation in running buffer HBS-EP. Glycine-HCl pH 2.0 (cat. no. BR100355, GE Healthcare) was used for regeneration of the antibody surfaces between the cycles. The temperature of the assay was 25° C. Before performing the kinetic analyses, the signal from 100 nM hIL-1R-I injected over a reference surface containing goat anti-ABD but no Z-ABD sample was subtracted from the sensorgram of Z-ABD binding to hIL-1R-I. Rough screening affinities (KD) were calculated from the reference subtracted 100 nM hIL-1R-I response using a 1:1 binding model of the BiaEvaluation software 4.1 (GE Healthcare). […]
The binding of Z variants to human IL-1R-I was analyzed in a kinetic screening, using a Biacore 2000 instrument, essentially as described in Example 4, but with the exception that Z-ABD (ABD001, SEQ ID NO:1660) periplasmic extracts were injected during 2 min. […]

hIL-1R-I [3] = biological target: T1, hIL-1R-I; assay: Biacore affinity/kinetic analysis of His6-tagged Z variants, human IL-1R-I; format: binding; conditions: His6-Z polypeptides binding to human IL-1R-I, Biacore, Table 19

B1: Z18814: Z variant differing from Z16065 only in position X5 of the BM (isoleucine) (protein)
chain: AQHDEALEVDAKYAKEVEEIQMEIFALPNLTRRQYTAFIRKLLDDPSQSSELLSEAKKLNDSQAPKVDYVLAEAKVLANRELDKYGVSDYYKNLINNAKTVEGVKALIDEILAALPYVPG
Melting temperatures (Tm) [1]: 61 °C | affinity relative to Z16065 (hIL-1R-I [2]): three times higher affinity | koff (hIL-1R-I [3]): 0.0044 s⁻¹ | kon (hIL-1R-I [3]): 3e+07 M⁻¹ s⁻¹ | Kd (hIL-1R-I [3]; read-out: KD): 0.15 nM
